Measurements reported in the supplement of paper PMC8728848.
The other results are listed elsewhere or left out.

How the values were obtained:
Experiment in all cases: glycan array binding signal (z-score within array); higher = stronger binding
Conditions in all cases: glycan notation: IUPAC condensed, linker removed
[1] = target: Gal(b1-4)GlcNAc(b1-2)Man(a1-3)[Gal(b1-4)GlcNAc(b1-2)Man(a1-6)]Man(b1-4)GlcNAc(b1-4)[Fuc(a1-6)]GlcNAc
Summary of the method: (§1)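 From the Consortium for Functional Glycomics database, 3228 arrays were curated, keeping only those whose protein sequence was available. Binding is given as a within-array Z-score averaged across arrays sharing a protein sequence and across linkers. Negative Z-scores can be read as non-binding.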

[2] = target: Gal(b1-4)GlcNAc(b1-2)Man(a1-3)[Gal(b1-4)GlcNAc(b1-2)Man(a1-6)][Gal(b1-4)GlcNAc(b1-4)]Man(b1-4)GlcNAc(b1-4)[Fuc(a1-6)]GlcNAc
Summary of the method: as §1

[3] = target: Gal(b1-4)GlcNAc(b1-2)Man(a1-3)[Gal(b1-4)GlcNAc(b1-2)Man(a1-6)][GlcNAc(b1-4)]Man(b1-4)GlcNAc(b1-4)[Fuc(a1-6)]GlcNAc
Summary of the method: as §1

[4] = target: Gal(b1-4)GlcNAc(b1-2)Man(a1-3)[GlcNAc(b1-2)Man(a1-6)]Man(b1-4)GlcNAc(b1-4)GlcNAc
Summary of the method: as §1

[5] = target: Gal(b1-4)GlcNAc(b1-2)Man(a1-3)[GlcNAc(b1-4)][Gal(b1-4)GlcNAc(b1-2)Man(a1-6)]Man(b1-4)GlcNAc(b1-4)GlcNAc
Summary of the method: as §1

[6] = target: Gal(b1-4)GlcNAc(b1-2)Man(a1-3)[Man(a1-6)]Man(b1-4)GlcNAc(b1-4)GlcNAc
Summary of the method: as §1

[7] = target: Gal(b1-4)GlcNAc(b1-2)Man(a1-6)Man(b1-4)GlcNAc(b1-4)GlcNAc
Summary of the method: as §1

[8] = target: Gal(b1-4)GlcNAc(b1-2)Man(a1-6)[GlcNAc(b1-2)Man(a1-3)]Man(b1-4)GlcNAc(b1-4)GlcNAc
Summary of the method: as §1

[9] = target: Gal(b1-4)GlcNAc(b1-2)Man(a1-6)[Man(a1-3)]Man(b1-4)GlcNAc(b1-4)GlcNAc
Summary of the method: as §1

[10] = target: Gal(b1-4)GlcNAc(b1-2)[Gal(b1-4)GlcNAc(b1-4)]Man(a1-3)[Gal(b1-4)GlcNAc(b1-2)Man(a1-6)]Man(b1-4)GlcNAc(b1-4)GlcNAc
Summary of the method: as §1

[11] = target: Gal(b1-4)GlcNAc(b1-2)[Gal(b1-4)GlcNAc(b1-4)]Man(a1-3)[Gal(b1-4)GlcNAc(b1-2)[Gal(b1-4)GlcNAc(b1-6)]Man(a1-6)]Man(b1-4)GlcNAc(b1-4)GlcNAc
Summary of the method: as §1

[12] = target: Gal(b1-4)GlcNAc(b1-2)[Gal(b1-4)GlcNAc(b1-4)]Man(a1-3)[GlcNAc(b1-4)][Gal(b1-4)GlcNAc(b1-2)Man(a1-6)]Man(b1-4)GlcNAc(b1-4)GlcNAc
Summary of the method: as §1

[13] = target: Gal(b1-4)GlcNAc(b1-2)[Gal(b1-4)GlcNAc(b1-4)]Man(a1-3)[GlcNAc(b1-4)][Gal(b1-4)GlcNAc(b1-2)[Gal(b1-4)GlcNAc(b1-6)]Man(a1-6)]Man(b1-4)GlcNAc(b1-4)GlcNAc
Summary of the method: as §1

[14] = target: Gal(b1-4)GlcNAc(b1-2)[Gal(b1-4)GlcNAc(b1-6)]Man(a1-6)[Gal(b1-4)GlcNAc(b1-2)Man(a1-3)]Man(b1-4)GlcNAc(b1-4)GlcNAc
Summary of the method: as §1

[15] = target: Gal(b1-4)GlcNAc(b1-2)[Gal(b1-4)GlcNAc(b1-6)]Man(a1-6)[Gal(b1-4)GlcNAc(b1-2)Man(a1-3)]Man(b1-4)GlcNAc(b1-4)[Fuc(a1-6)]GlcNAc
Summary of the method: as §1

[16] = target: Gal(b1-4)GlcNAc(b1-2)[Gal(b1-4)GlcNAc(b1-6)]Man(a1-6)[GlcNAc(b1-4)][Gal(b1-4)GlcNAc(b1-2)Man(a1-3)]Man(b1-4)GlcNAc(b1-4)GlcNAc
Summary of the method: as §1

[17] = target: Gal(b1-4)GlcNAc(b1-2)[Gal(b1-4)GlcNAc(b1-6)]Man(a1-6)[GlcNAc(b1-4)][Gal(b1-4)GlcNAc(b1-2)[Gal(b1-4)GlcNAc(b1-4)]Man(a1-3)]Man(b1-4)GlcNAc(b1-4)[Fuc(a1-6)]GlcNAc
Summary of the method: as §1

[18] = target: Gal(b1-4)GlcNAc(b1-3)Gal(b1-3)GalNAc
Summary of the method: as §1

[19] = target: Gal(b1-4)GlcNAc(b1-3)Gal(b1-3)GlcNAc
Summary of the method: as §1

B1: Na-CTL-1 (Necator americanus) (protein)
chain: MQRSFLLLLVVLAGAWAVNTTIPLKLMGGFTPMKYQCVGRVSDIWADVLFLIESSDMITKSGFRQVIAFITATTKKMTIGQDEKQTRVGFITYGEEAKLIYDLDHWRSTEKLSDLVQKIPYVKSSGTNIAAAIALANKVFNSPTHRPNVPKVMVIVANGLKKGSQNPIPVATAFKDFGGIIITIEYTQYDNIQVPILKKIASEGYNIRSNDEDFSVRTLTNMLLQANCFCPDHYVPFRVNNPEFGCFVTAKIPSMWRDAAEMCRAVEEGKLVKVENEEKAAFIMKLVGPKKEAWIGLRYYGNKFQWTDGTKLNADDFNLWPEDIKELNGPHCVSMYQDQKDKKYYWRAGKCLEDMRYVCEVQPCSASNYCSEPVFMYRQKHRALLPAPPPPPN
- glycan array binding signal (z-score) [1]: -0.105
- glycan array binding signal (z-score) [2]: -0.149
- glycan array binding signal (z-score) [3]: -0.303
- glycan array binding signal (z-score) [4]: -0.27
- glycan array binding signal (z-score) [5]: 0.121
- glycan array binding signal (z-score) [6]: 0.253
- glycan array binding signal (z-score) [7]: -0.313
- glycan array binding signal (z-score) [8]: -0.602
- glycan array binding signal (z-score) [9]: 3.16
- glycan array binding signal (z-score) [10]: 0.445
- glycan array binding signal (z-score) [11]: 0.369
- glycan array binding signal (z-score) [12]: -0.503
- glycan array binding signal (z-score) [13]: -0.558
- glycan array binding signal (z-score) [14]: -0.505
- glycan array binding signal (z-score) [15]: 0.921
- glycan array binding signal (z-score) [16]: -0.418
- glycan array binding signal (z-score) [17]: 0.131
- glycan array binding signal (z-score) [18]: -0.697
- glycan array binding signal (z-score) [19]: -0.153
